# Laboratory results published in ChEMBL document CHEMBL1201862, “PubChem BioAssay data set” (2004).
#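 48-hour exposure; five concentrations; linearly interpolated endpoints. At the GI50, growth is halved.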 The source made the active and inactive calls. Rule as the data show it: active = GI50 up to about 1.1 µM and inactive = higher.
# Test system: NCI-H322M
# Test: growth of human tumour cells (NCI), 48 h
row,Structure (SMILES),GI50
1,N=c1oc2ccc([N+](=O)[O-])cc2cc1C(=O)NCc1ccccc1,inactive: 34.4 µM
2,COc1cc(N(C)C)ccc1C=c1c2ccccc2n2c1cc(-c1ccccc1)[n+]2C,active: 0.498 µM
3,CCN1CCC(O)(c2ccc(Cl)cc2)C(C(=O)c2ccc(Cl)cc2)C1 (stereo not given),inactive: > 100 µM
4,Cc1cc2c(c(/C=N/Cc3ccccc3)c1)OC1(C=C2)Oc2ccccc2C(=O)N1C (stereo not given),inactive: 20.7 µM
5,COC1CC(C)C(OC)C2=CC(=O)C=C(NC(=O)/C(C)=C/C=C\C(C)C(OC(N)=O)/C(C)=C\C(C)C1OC)C2=O (stereo not given),inactive: 2.37 µM
6,CCOC(=O)c1nc(SC)sc1NC(=O)c1ccc(OC)cc1,inactive: > 100 µM
7,CCOC(=O)C(C[Si](C)(C)C)P(=O)(OCC)OCC (stereo not given),inactive: > 100 µM
8,NNC(=O)/C(=C/c1ccc(Cl)cc1Cl)NC(=O)c1ccccc1,inactive: > 100 µM
9,CCOc1ccc(N/C(=C(/C(Cl)=C(/Cl)NCCN)[N+](=O)[O-])n2nnc3ccccc32)cc1,inactive: > 100 µM
10,Cc1ccnn1CCc1ccc(Cl)cc1Cl,inactive: 23.9 µM
11,Cc1ccc([N+](=O)[O-])c2c(NCCNC(=O)c3cc(C(=O)NCCNc4ccnc5c(C)ccc([N+](=O)[O-])c45)n(C)n3)ccnc12,inactive: > 59.4 µM
12,CC/C(Cl)=N\OC(=O)Nc1ccc(OC)cc1,inactive: 16.7 µM
13,COc1ccc(C2(CC(C)C)CCN(S(=O)(=O)c3ccc(C)cc3)C2)cc1OC (stereo not given),inactive: 54.3 µM
14,O=c1[nH]c(=O)n(COCc2ccccc2)c2ccsc12,inactive: > 100 µM
15,Nc1ccc(C2=Nc3ccccc3SC(c3ccccc3O)C2)cc1 (stereo not given),inactive: > 100 µM
16,Oc1ccc(Cl)cc1CN1CCN(Cc2cc(Cl)ccc2O)C1,active: 0.91 µM
17,NC(CCCNCc1ccccc1)C(=O)O (stereo not given),inactive: > 100 µM
18,CC(C)N(O)C(=N)c1ccccc1,inactive: > 100 µM
19,O=[N+]([O-])c1ccc(N/N=C(\c2ccccc2)c2ccccn2)nc1,inactive: 2.94 µM
20,O=S(=O)(c1ccc(Br)cc1)n1c2ccc(Br)cc2c2nc3ccccc3nc21,inactive: > 100 µM
21,CCC(C(C)N1CC(=O)NC(=O)C1)N1CC(=O)NC(=O)C1 (stereo not given),inactive: 82.8 µM
22,CCOC(=O)c1nc2ccccc2nc1Oc1ccc(C(=O)OC)cc1,inactive: > 100 µM
23,COc1cc(C2SC(=N)Nc3c2c(C)nn3C(=O)Cc2ccccc2)ccc1O (stereo not given),inactive: > 100 µM

row,Structure (SMILES),GI50
1,CN1CC2=C(N=C(S)NC2c2ccccc2Cl)/C(=C/c2ccccc2Cl)C1 (stereo not given),inactive: > 100 µM
2,CCN1c2ccccc2-n2c(C)nnc2-c2c(-c3ccccc3)n[nH]c21,inactive: > 100 µM
3,O=C(O)c1cnc(-n2[nH]c3c(c2=O)CCCC3)[nH]c1=O,inactive: > 100 µM
4,CCC1(N=[N+]=[N-])C(=O)c2ccccc2N(c2ccccc2)C1=O (stereo not given),inactive: > 100 µM
5,O=C1CCCC(O)=C1SC1=C(O)CCCC1=O,inactive: > 100 µM
6,CCCCCC/C=C/C#CCCCCCCCC(=O)O,inactive: > 100 µM
7,Cc1cc(O)c2c(c1)C(=O)C=C(Br)C2=O,inactive: 29.3 µM
8,CN(C)CCSc1nccc(-c2cc3ccccc3s2)n1,inactive: 31.8 µM
9,O=C1c2ccccc2C(=O)C1C(c1ccc(F)cc1)C1C(=O)c2ccccc2C1=O,inactive: > 100 µM
10,Nc1ccc(S(=O)(=O)c2ccc(/N=[N+](\[O-])c3ccc(S(=O)(=O)c4ccc(N)cc4)cc3)cc2)cc1,inactive: 52.5 µM
11,CC(C)=C[C@H]1CCC2(OCCO2)[C@]1(C)CO,inactive: > 100 µM
12,CC(C)(C)n1c(=O)n2n(c1=O)Cc1cccc3cccc(c13)C2,inactive: 36.3 µM
13,NC(=S)N1N=C2c3ccccc3CCC[C@H]2[C@@H]1c1ccccc1,inactive: 4.71 µM
14,COC(=O)[C@@H]1C[C@H]2[C@H](c3ccccc3Br)[C@@H](OC(C)=O)[C@@H](OCc3ccccc3)ON2O1,inactive: > 100 µM
15,NCC(=O)Nc1ccccc1,inactive: > 100 µM
16,CCn1c(C)nn2c(=O)c3ccccc3nc2c1=O,inactive: > 100 µM
17,CC(C)(C)[Si](C)(C)OCC1OC(n2cnc3c(N)ncnc32)C2OC(=S)OC12 (stereo not given),inactive: 54.5 µM
18,CC1=CC(C)(C)NN1C1=NS(=O)(=O)c2ccccc2N1C,inactive: > 100 µM
19,CC(=O)OCC1OC(N2C(=O)NC(=O)C3C=C4CCCCC4=CC32)CC1OC(C)=O (stereo not given),inactive: > 100 µM
20,CC[C@]12C=CCN3CCC4(c5cc(/N=N/c6ccccc6)c(OC)cc5N(C)[C@H]4[C@@](O)(C(=O)OC)[C@@H]1OC(C)=O)[C@@H]32 (stereo not given in full),inactive: 18 µM
21,Cc1cc(S(=O)(=O)O)c(NC(=O)c2oc3cc(O)ccc3c(=O)c2C)cc1Cl,inactive: > 100 µM
22,Cn1c2c(c3c(=O)[nH]ncc31)CCc1ccccc1-2,inactive: 37.9 µM
23,O=C(Cc1nc2ccccc2s1)C(=O)Nc1cccc(Cl)c1,inactive: > 100 µM

row,Structure (SMILES),GI50
1,Cc1ccccc1NC(=S)N/N=C(/c1ccccc1)c1ccccn1,active: < 0.01 µM
2,COc1ccc(N2C(=O)C3c4[nH]c5ccccc5c4C4CCC(C(C)C)CC4C3C2=O)cc1 (stereo not given),inactive: > 100 µM
3,S=C(Nc1ccc(/N=N/c2ccccc2)cc1)SCc1ccccc1,inactive: 13.2 µM
4,CCOC(=O)C(C(=O)OCC)C1C=CCC2c3ccccc3COCC21 (stereo not given),inactive: > 100 µM
5,C=C1C(=O)O[C@H]2/C=C(/C)C3=CC(=O)[C@@](C)(C[C@@H](OC(=O)/C(C)=C\C)C12)O3 (stereo not given in full),inactive: 10.9 µM
6,O=C1CC2CCCC23CC2(CCN13)OCCO2 (stereo not given),inactive: > 100 µM
7,COC(=O)/C(C#N)=C(\Nc1ccccc1)N1CCOCC1,inactive: > 100 µM
8,C=CCCCC1(C)CCCCNC1=O (stereo not given),inactive: > 10 µM
9,COc1ccc2[nH]c3c(c2c1)CCc1c(OC)cccc1-3,inactive: > 100 µM
10,COC(=O)/C=C\C(C#N)(C#N)/N=C/c1ccc(OC)cc1,inactive: 25.7 µM
11,CC(=O)O/N=C/c1c2ccccc2cc2ccccc12,inactive: 40.8 µM
12,Cc1cc2[nH]c3c(C#N)c(-c4ccccc4)c(CN4CCOCC4)c(=O)n3c2cc1C,inactive: > 100 µM
13,O=C1C[C@@H](c2ccccc2)NCCCCN(O)CCCN1,inactive: > 100 µM
14,CNc1ncnc2c1cnn2COCC(O)CO (stereo not given),inactive: > 100 µM
15,O=c1oc2ccc3ccccc3c2cc1-c1nc2ccccc2s1,inactive: > 100 µM
16,O=C(CNc1ccc(Cl)cc1)Nn1c(-c2ccccc2)nc2ccccc2c1=O,inactive: 15.3 µM
17,Cc1cn(C2C=CC(=O)C(C)O2)c(=O)[nH]c1=O (stereo not given),inactive: 19.3 µM
18,CC(C)(C)c1cc(C(=O)O)c2c(c1)C(=O)OC2(c1ccccc1)c1ccccc1C(=O)O (stereo not given),inactive: > 100 µM
19,CC(C)=CCC/C(C)=C/CC/C(C)=C/CC/C(C)=C/C=C/C=C(\C)CC/C=C(\C)CC/C=C(\C)CCC=C(C)C,inactive: > 100 µM
20,CC(C)=CCN(N=O)c1ncnc2[nH]cnc12,inactive: > 100 µM
21,Cc1cccc(C)c1NC(=S)NC=C(C(N)=O)C(N)=O,inactive: > 100 µM
22,N=c1oc2ccccc2cc1C(=O)Nc1nccs1,inactive: 68.1 µM
23,CC1=NN(c2ccc(S(=O)(=O)O)cc2)C(=O)/C1=C/c1ccc(Cl)cc1.c1ccncc1,inactive: > 100 µM

row,Structure (SMILES),GI50
1,OCCN(CCO)c1ncnc2c1sc(=S)n2-c1ccccc1,inactive: > 100 µM
2,Cc1ccc2nc(NC(=O)C(=O)C(C(=O)c3ccc4ccccc4c3)C3OC(=O)c4ccccc43)sc2c1 (stereo not given),inactive: 8.45 µM
3,COC(=O)[C@H](NC(=O)OC(C)(C)C)[C@H]1COC(C)(C)O1,inactive: > 100 µM
4,O=c1c2cc3c(=O)n(CCc4ccccc4CO)c(=O)c3cc2c(=O)n1CCc1ccccc1CO,inactive: > 100 µM
5,O=C(NC(Cc1ccc(I)cc1)C(=O)O)c1cccc(Br)c1 (stereo not given),inactive: > 100 µM
6,O=C1OCC2=Nc3cccc4cccc(c34)N12,inactive: 6.4 µM
7,CC(=O)OC1C=C(C=O)C(O)(C=O)C2(C)CCCC(C)(C)C12 (stereo not given),inactive: 5.24 µM
8,O=C1CC(c2cccc([N+](=O)[O-])c2)C2(C(=O)NC(=O)NC2=O)C(c2cccc([N+](=O)[O-])c2)C1 (stereo not given),inactive: 15.9 µM
9,S=c1nc(Nc2ccc(Cl)cc2)c2c3c(sc2[nH]1)CCCC3,inactive: > 100 µM
10,COC(=O)c1cccc(COc2ccc([N+](=O)[O-])cc2Cl)c1,inactive: > 100 µM
11,O=C(C=C1SCCS1)/C=C\c1ccc(Cl)cc1,inactive: 90.4 µM
12,CC(C)(C)c1cc(C(P(=O)(O)O)P(=O)(O)O)cc(C(C)(C)C)c1O,inactive: > 100 µM
13,Cc1ccc(C(=O)Nc2ccc(CP(=O)(O)O)cc2)cc1NC(=O)Nc1cc(C(=O)Nc2ccc(CP(=O)(O)O)cc2)ccc1C,inactive: > 100 µM
14,[N-]=[N+]=CC(=O)CCC(NC(=O)C(CCC(=O)C=[N+]=[N-])NC(=O)CCC(N)C(=O)O)C(=O)O (stereo not given),inactive: > 100 µM
15,C=C1C2C[C@@H]3O[C@H]4C[C@H]5O[C@@]6(C[C@@H]7O[C@]8(C[C@H](C)[C@@H]9O[C@@H]%10CC(CO)O[C@@H]%10C[C@@H]9O8)C[C@H](C)[C@@H]7O6)C[C@H]5O[C@H]4[C@H](C)[C@H]3OC(=O)C[C@H]3CC[C@@H]4OC5[C@H]6O[C@]7(CC[C@H]8CC(=C)[C@H](CC[C@@H](C[C@H]1C)O2)O8)CC6O[C@@H]5[C@@H](O7)[C@H]4O3 (stereo not given in full),active: < 0.0001 µM
16,CC(=O)O[C@H]1C(=O)[C@@]2(C)C([C@H](OC(=O)c3ccccc3)[C@]3(O)C[C@H](OC(=O)[C@H](O)[C@H](NC(=O)c4ccccc4)c4ccc(Cl)cc4)C(C)=C1C3(C)C)C1(OC(C)=O)CO[C@@H]1C[C@@H]2O (stereo not given in full),active: 0.0059 µM
17,O=C1CCCCC/C1=C\c1cccc([N+](=O)[O-])c1,inactive: 44.5 µM
18,COC(=O)[C@H](Cc1ccccc1)NP(=O)(OCCC#N)OCC1OC(n2cc(C)c(=O)[nH]c2=O)CC1N=[N+]=[N-] (stereo not given in full),inactive: > 100 µM
19,FC(F)(F)c1nc2ccc(SSc3ccc4nc(C(F)(F)F)[nH]c4c3)cc2[nH]1,inactive: > 10 µM
20,N#Cc1c(N2CCN(c3ccc([N+](=O)[O-])cc3)CC2)[n+]([O-])c2ccccc2[n+]1[O-],inactive: > 100 µM
21,COc1cc2c(cc1OCCCN1C(=O)c3cccc4cccc(c34)C1=O)N=C[C@@H]1CCCN1C2=O,inactive: > 100 µM
